Data from paper PMC6919601, “Identification of Plasmodium dipeptidyl aminopeptidase allosteric inhibitors by high throughput screening” (PLoS ONE, 2019).
In all, about 110,000 compounds went through this assay and about 230 (0.21%) showed an effect of 50% or more. The list shows a part of the results.

Target: DPAP1 (Plasmodium falciparum, UniProt Q8IIJ9)
Test: primary screen, percent inhibition; read by cleavage of a fluorogenic dipeptide substrate; higher = more effect of the substance
Parameters: species or system P. falciparum D10 trophozoite lysates; single well
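Note: 30 min substrate incubation versus DMSO and 10 µM JCP410 controls.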

Chain of DPAP1 (Q8IIJ9 whole entry, looked up): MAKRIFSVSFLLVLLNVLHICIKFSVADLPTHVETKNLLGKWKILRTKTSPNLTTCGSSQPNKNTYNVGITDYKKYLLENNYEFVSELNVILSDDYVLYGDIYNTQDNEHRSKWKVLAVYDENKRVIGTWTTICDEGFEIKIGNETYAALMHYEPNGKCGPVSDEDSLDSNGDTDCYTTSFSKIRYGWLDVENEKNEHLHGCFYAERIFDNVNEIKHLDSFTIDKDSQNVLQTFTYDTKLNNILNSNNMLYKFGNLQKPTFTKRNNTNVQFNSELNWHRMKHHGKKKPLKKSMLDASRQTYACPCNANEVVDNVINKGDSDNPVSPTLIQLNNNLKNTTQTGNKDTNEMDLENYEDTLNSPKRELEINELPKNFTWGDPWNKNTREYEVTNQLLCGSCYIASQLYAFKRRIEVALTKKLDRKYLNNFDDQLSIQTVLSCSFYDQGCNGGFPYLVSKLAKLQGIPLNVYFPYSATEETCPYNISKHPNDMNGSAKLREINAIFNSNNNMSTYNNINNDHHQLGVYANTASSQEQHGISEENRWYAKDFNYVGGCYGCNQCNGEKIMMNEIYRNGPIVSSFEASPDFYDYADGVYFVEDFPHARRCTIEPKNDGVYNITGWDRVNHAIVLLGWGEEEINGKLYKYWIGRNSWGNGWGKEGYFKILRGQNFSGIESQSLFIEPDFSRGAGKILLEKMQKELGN

Structure (SMILES) | % Inhibition @ 10 uM
Cc1cc2cc(CNC(=S)NCCc3ccccc3)ccc2[nH]1 | -0.138%
COc1cc(C(=O)N2CCN(C34CC5CC(CC(C5)C3)C4)CC2)cc(OC)c1OC | -5.48%
COc1ccccc1-c1nc2c3c(C)c(C)oc3ncn2n1 | -1.28%
Cc1onc(-c2ccccc2Cl)c1C(=O)N(Cc1ccccc1)C(C)C | -5.52%
CC12CN(C(=O)c3ccccc3Cl)CC(C)(CN(C(=O)c3ccccc3Cl)C1)C2=O | 1.75%
CCOC(=O)NC(C)(C)COC(=O)NC | 0.058%
Cc1cc(C)nc(SCC(=O)Nc2ncc(Cc3ccc(F)cc3)s2)n1 | 3.81%
COc1cc2c(cc1OC)C(c1ccccc1C(F)(F)F)N(C)CC2 (stereo not drawn) | 4.55%
Fc1c(F)c(F)c2c(cnn2-c2ccccc2)c1F | -2.19%
Cc1c(C(c2cc(Cl)ccc2O)c2c(C)n(C)n(-c3ccccc3)c2=O)c(=O)n(-c2ccccc2)n1C | 7.99%
CCCc1[nH]nc2c1C(c1cc(OC)c(OC)c(OC)c1)C(C#N)=C(N)O2 (stereo not drawn) | -0.661%
COCCCN1C(=O)c2c(c3n(c2-c2ccccc2)Cc2ccccc2-3)C1=O | -1.03%
Cc1c(Cl)c(C(F)(F)F)nn1CC(=O)N1CCc2ccccc21 | 2.51%
Cc1ccc(SCC(=O)NC2CCS(=O)(=O)C2)cc1 (stereo not drawn) | 3.81%
Cn1c(=O)c2ncn(CC(=O)Nc3ccc(N4CCN(Cc5ccccc5)CC4)cc3)c2n(C)c1=O | -7.09%
CSc1ccccc1NC(=O)C1CCN(S(C)(=O)=O)CC1 | -1.84%
COc1cc2c(C(=O)NCCC(C)C)cn(CC(C)C)c(=O)c2cc1OC | 4.33%
O=C(CSc1nnc(-c2cccnc2)n1-c1ccccc1)N1CCOCC1 | 2.12%
COc1ccc(-c2nc3scc(CCNC(=O)c4cccc(C(F)(F)F)c4)n3n2)cc1 | -1.74%
CC(C)(C)OC(=O)Nc1c(F)ccc2c(-c3ccccc3)noc12 | 0.777%
COC(=O)c1c(NC(=O)c2cc(C)oc2C)sc2c1-c1ccccc1CC2 | 5.32%
Cc1ccc(NC(=O)c2ccccc2C(=O)O)cc1Cl | -0.185%
O=C(Nc1nsc(-c2ccccc2)n1)c1ccc2ncsc2c1 | -6.79%
CCN1CCC(NCc2cccc(F)c2)CC1 | -7.18%
CCCCn1ccc(=O)c2c(C(F)(F)F)nccc21 | 3.34%
CCN1CCN(Cc2nc3c(c(=O)n(C)c(=O)n3C)n2CCCO)CC1 | -1.43%

Structure (SMILES) | % Inhibition @ 10 uM
Cc1ccc(S(=O)(=O)Nc2ccc(S(=O)(=O)c3ccc(N)cc3)cc2)cc1 | 0.661%
O=C(O)Cc1ccccc1Sc1ccccc1Cl | -1.91%
O=C(CCc1nc(-c2ccccc2F)no1)NCCCN1CCCC1 | 1.86%
CN1C(=C2C(=O)NC(=S)NC2=O)Sc2ccccc21 | 2.16%
Cc1ccc2c(c1)-c1onc(C(=O)NCCCN3CC(C)CC(C)C3)c1CO2 (stereo not drawn) | 1.91%
Cc1ccc(Cl)cc1NC(=O)CN1C(=O)S/C(=C/c2ccc3c(c2)n(C)c(=O)n3C)C1=O | 4.69%
OC1CSc2nc3ccccc3n2C1 (stereo not drawn) | 7.62%
CCC(C)c1ccc(NC(=O)c2cccnc2)cc1 (stereo not drawn) | -0.856%
COc1cc(C2c3cc4c(cc3OC3(O)CCCC23)OCO4)cc(OC)c1OC (stereo not drawn) | 5.94%
Cc1ccc(OCC(=O)NC2CCCCC2)c(Br)c1 | -2.3%
O=C(c1ccc(Br)cc1)N1CCN(c2ncccn2)CC1 | 1.57%
Cc1cc(C)cc(NC(=O)CSc2ccccc2)c1 | 3.05%
Cc1nc2ncnn2c(C)c1CCC(=O)NC(C)c1cccs1 (stereo not drawn) | -6.03%
COc1cccc(C2=NS(=O)(=O)N(C)C(C(=O)N(C)C3CCCCC3)=C2)c1 | 8.44%
CCn1c(NCc2cccc(OC)c2OC)nc2ccccc21 | 3.24%
CCCCN1C(=O)CN(C2CCCCC2)C(=O)C1c1ccc(OCCC)c(OC)c1 (stereo not drawn) | 5.99%
Cc1cccc(-c2nc(CS(=O)CC(=O)NCc3ccccc3)c(C)o2)c1 (stereo not drawn) | 2.37%
O=C1CC(c2ccc(Cl)c(Cl)c2)c2cc3c(cc2N1)OCO3 (stereo not drawn) | 2.49%
Cc1ccc(C(=O)N(Cc2cccs2)C2CCS(=O)(=O)C2)cc1 (stereo not drawn) | 3.29%
NC(=O)c1c(NC(=O)CCc2ccccc2)sc2c1CCCC2 | -2.8%
C=CCn1c(-c2ccc(OC)cc2)cs/c1=N\c1ccc(NC(C)=O)cc1 | 0.00477%
N#Cc1c(O)nc(S)nc1-c1cccc(Br)c1 | -1.75%
O=C(c1sc2cc(F)ccc2c1Cl)N1CCOCC1 | 4.17%
COc1cccc2sc(N(CCCN(C)C)C(=O)c3ccccc3Cl)nc12 | 2.5%
COc1ccc(-n2c(-c3ccccc3)c(C#N)c(O)c(Cc3ccccc3)c2=O)cc1 | 2.32%
